Screen size: about 52,000 compounds; about 4,300 (8.3%) were called active. Rule as the data show it: active = survival mostly below about 52% (no sharp cut-off); inactive = mostly above about 56%. This is one part of the list.

The test system of the assay is DeltatarO mutant. Nature of the assay: S. aureus survival, RN4220 and DeltatarO strains – OD600, teichoic acid synthesis inhibitors, primary screen (AID 463173). The following applies: S. aureus RN4220 wild type/DeltatarO growth, OD600, 18 h, active compounds read low, screened at 18.75 µg/mL (by protocol).
Take `Cc1cn(C(=O)c2ccccc2)c(=O)[nH]c1=O`: the survival is active: 57%.

With `Cc1c(C(=O)N2CCCC2)oc2c1-c1nn(CC(=O)NC(C)c3ccccc3)cc1CC2` (stereo not given), the survival is inactive: 72%.

`Cc1ccc(OC(=O)c2ccco2)cc1C`: the survival was inactive: 61%.

In the case of `Cc1cc(F)ccc1NC(=O)c1ccc2nc(Cc3ccccc3)oc2c1`, the survival is inactive: 83%.

For the compound `COc1ccc(-n2ccn(CC(=O)NCc3ccc(C)cc3)c(=O)c2=O)cc1OC`, the survival was inactive: 90%.

As to `COc1ccc(-n2c(=O)c3sc4ccccc4c3n(CC(=O)NC3CCCCC3)c2=O)cc1`, the survival is inactive: 110%.

In the case of `CC(C)c1ccc(N2C(=O)N(Cc3ccccc3Cl)c3ccccc3S2(=O)=O)cc1`, the survival is inactive: 86%.

For `O=C(Nc1cc(C(F)(F)F)ccc1Cl)c1cnn(-c2ccccc2)c1-n1cccc1`, the survival is active: 0%.

With `COC(=O)Cc1c(C)nc2nc(-c3ccc(C)cc3)[nH]n2c1=O`, the survival was inactive: 92%.

`CCOc1ccc(CCNC(=O)c2cnc3sc(N4CCCCC4)nn3c2=O)cc1`: the survival was inactive: 69%.

Consider `CCOc1cccc2sc(NC(=O)CS(=O)(=O)c3ccc(C)cc3)nc12`, for which the survival was inactive: 96%.

In the case of `CCN(Cc1ccccc1)S(=O)(=O)c1ccc(F)c(C(=O)Nc2cc(C(F)(F)F)ccc2Cl)c1`, the survival is active: 17%.

Regarding `COc1ccc(N2C(=O)CSC23C(=O)N(CC(N)=O)c2ccccc23)cc1` (stereo not given), the survival is inactive: 70%.

Consider `Cc1cccc(N(CC(N)=O)C2SC(=O)N(Cc3cccc(C(=O)O)c3)C2=O)c1` (stereo not given), for which the survival is inactive: 66%.

`CCC(=O)Nc1nnc2n1CCS2`: the survival was inactive: 91%.

On to `Cc1cc(Br)cc2c(C(=O)OCC(=O)c3ccccc3)cc(-c3ccccc3)nc12`, for which the survival was inactive: 128%.

Turning to `Cc1c(-c2nnc(SCC(=O)Nc3ccc(Cl)cc3)o2)nnn1-c1ccc(F)cc1`, the survival is inactive: 87%.

On to `COc1ccccc1N1CCN(C(=O)c2cnc(N3CCOCC3)c3ccccc23)CC1`, for which the survival was inactive: 78%.

As for `Cc1cc(CN2CCN(c3ccc(F)cc3)CC2)cs1`, the survival is inactive: 69%.

Turning to `O=S(=O)(NC1CCCCC1)c1cc(Cl)ccc1Cl`, the survival was inactive: 96%.

Consider `CCN1CCSc2ccc(C(=O)NCc3ccccc3Br)cc21`, for which the survival is inactive: 62%.

Turning to `COC(=O)c1ccc([C@H]2Nc3ccc(S(=O)(=O)Nc4cccc(C)c4)cc3[C@H]3C=CC[C@H]32)cc1`, the survival is inactive: 50%.

For `N#C/C(=C\c1cn(CC(=O)NCC2CCCO2)c2ccccc12)C(=O)N1CCCC1` (stereo not given), the survival was inactive: 112%.

`COCCNC(=O)CCCn1c(SCc2ccccc2Cl)nc2c(sc3ccccc32)c1=O`: the survival is inactive: 129%.

As for `COc1ccc(-n2c(=O)c3c(c4cc(OC)ccc4n3C)n(CCC(C)C)c2=O)cc1`, the survival was inactive: 87%.

Turning to `COc1ccccc1C1CC(=O)N(c2cccc(C(F)(F)F)c2)C2=C1C(=O)OC2` (stereo not given), the survival is inactive: 56%.

Regarding `O=C(COc1ccc(Cl)cc1)NCC(c1ccco1)S(=O)(=O)c1ccc(Cl)cc1` (stereo not given), the survival was inactive: 88%.

As to `Cc1cc(C)c2oc(-c3ccc(C)c(NC(=O)/C=C/c4ccco4)c3)nc2c1`, the survival is active: 45%.

`COc1ccc(CNC(=O)c2cc3c(=O)n(C)c4ccccc4c3n2C)c(OC)c1`: the survival was inactive: 50%.

As to `CCC(C)(C)NS(=O)(=O)c1cccs1`, the survival is inactive: 81%.

For `Cc1nc(N2CCCC2)ncc1C(=O)N1CCN(c2ccccc2F)CC1`, the survival is inactive: 94%.

`COc1ccc(Cn2c(CO)cnc2SCc2cccc(C)c2)cc1`: the survival is inactive: 94%.

As for `COc1ccccc1N1CCN(C(=O)CCS(=O)(=O)c2cc(Br)cc3c2N(C(C)=O)CC3)CC1`, the survival was inactive: 53%.

As for `O=C(c1nc2ncccn2n1)N1CCN(C(c2ccccc2)c2ccccc2)CC1`, the survival was inactive: 82%.

Turning to `Cc1ccc(C(=O)n2nc(C)c(S(=O)(=O)N3CCOCC3)c2C)cc1C`, the survival was inactive: 71%.

Turning to `COc1ccc(/C=C/C(=O)O)cc1S(=O)(=O)N1CCCC1`, the survival was inactive: 90%.

On to `CC1=C(C(=O)Nc2ccccc2)C(c2cc(Br)ccc2F)n2ncc(C(=O)Nc3ccccc3)c2N1` (stereo not given), for which the survival is inactive: 130%.

Turning to `COc1cccc(-c2nc(S(=O)(=O)c3ccccc3)c(N3CCC(C)CC3)o2)c1`, the survival was inactive: 50%.

Turning to `Cc1ccc(NC(=O)c2nnn(CC(=O)Nc3ccc(C)c(Cl)c3)c2N)c(C)c1`, the survival is inactive: 124%.

Take `CCc1ccccc1Nc1cc(C(=O)NCCCN(C)C2CCCCC2)c2ccccc2n1`: the survival is inactive: 93%.

In the case of `CCOc1ccc(NC(=O)Cn2cc(C(=O)c3ccccc3)c(=O)c3cc4c(cc32)OCCO4)cc1`, the survival is inactive: 73%.

Take `COC(=O)c1ccc(NC(=O)CC2C(=O)N(c3ccc(C)cc3)C(=O)N2Cc2ccc(OC)cc2)cc1` (stereo not given): the survival is inactive: 96%.

For `Clc1ccc(-c2noc(-c3cccnc3N3CCN(c4ccccc4)CC3)n2)cc1`, the survival is inactive: 75%.

Turning to `O=C(COc1ccccc1)Nc1nnc(SCc2cc(=O)c3ccccc3[nH]2)s1`, the survival is inactive: 83%.

With `Cc1ccc(C)c(N2CCN(C(=O)c3nn(C)c4c3CS(=O)(=O)c3ccccc3-4)CC2)c1`, the survival is active: 49%.

`Cc1ccc(OCC(=O)Nc2ccc(S(=O)(=O)N3CCOCC3)cc2)c(C)c1`: the survival was inactive: 94%.

As to `O=C1NC(=O)C(=Cc2ccc(N3CCCC3)cc2)C(=O)N1`, the survival is inactive: 102%.

With `Nc1c(C(=O)C2CC2)oc2ccccc12`, the survival is inactive: 71%.

For `Cc1ccn2c(Nc3ccccc3C)c(-c3cccnc3)nc2c1`, the survival was inactive: 81%.

`Cc1cnc2c(c1SCC(=O)NCc1ccccc1Cl)c(=O)n(C)c(=O)n2C`: the survival is inactive: 120%.

For the compound `CC(C)(Oc1ccc(Cl)cc1)C(=O)Nc1nnc2n1CCS2`, the survival was inactive: 78%.

Take `COc1cccc(C(=O)Nc2cccc(OCc3cc(=O)n4cccc(C)c4n3)c2)c1`: the survival is inactive: 126%.

Turning to `Cc1ccc(NC(=O)CCC(=O)N2CCSc3ccccc32)cc1`, the survival was inactive: 89%.

As to `Cc1ccc(NC(=O)C2CCC(CNS(=O)(=O)c3ccc4c(c3)C(C)(C)C(=O)N4C)CC2)cc1` (stereo not given), the survival was active: 67%.

`CC(C)(C)c1ccc(C(=O)N2CCN(Cc3cc(=O)n4nc(-c5ccccc5F)sc4n3)CC2)cc1`: the survival was inactive: 80%.

For the compound `C=CCSc1nnc(Cn2cnc3ccccc32)n1C`, the survival was inactive: 62%.

As to `COc1cc(OC)c(NC(=O)Cn2cnc3nc4c(cc3c2=O)CCCC4)cc1Cl`, the survival was active: -5%.

In the case of `O=C(CSc1nc(-c2ccccc2)cc(C(F)(F)F)n1)NCCN1CCOCC1`, the survival is inactive: 78%.

For the compound `Cc1cc(=O)oc2cc(OCC(=O)Nc3c(C(C)C)cccc3C(C)C)ccc12`, the survival is inactive: 66%.

With `Clc1ccc(-c2nnn3c2nc(NCc2ccc4c(c2)OCO4)c2ccccc23)cc1`, the survival was inactive: 59%.

With `CCN(C(=O)CSc1nc2ccccc2n1CC(=O)N1CCCC(C)C1)c1ccccc1` (stereo not given), the survival is inactive: 109%.

In the case of `CCOc1ccc(CCNC(=O)C2CCN(Cc3nc(-c4ccccc4C)oc3C)CC2)cc1OCC`, the survival was inactive: 86%.

For the compound `CCOC(=O)c1cc2sccc2n1CC(=O)NC1CCC(C)CC1` (stereo not given), the survival was inactive: 95%.

With `O=C(CC(NCc1cccnc1)C(=O)O)Nc1ccc(O)cc1` (stereo not given), the survival was inactive: 72%.

`Cn1c(=O)c(=O)n(C)c2cc(S(=O)(=O)Nc3ccc(Cl)c(C(F)(F)F)c3)ccc21`: the survival is inactive: 74%.

As to `Cc1ccc(C2c3[nH]c4ccccc4c3CCN2C(=O)CCc2ccccc2)cc1` (stereo not given), the survival is inactive: 73%.

For the compound `N#C/C(=C/C=C/c1ccco1)c1nc2ccccc2[nH]1`, the survival was inactive: 76%.

For `COc1ccccc1-c1nc(SCC(=O)Nc2ccc(C)c(C)c2)n[nH]1`, the survival was active: 43%.

Consider `CCN(CC)C(=O)COc1ccc(-c2nnc(Nc3ccc(OC)c(C(=O)NC)c3)c3ccccc23)cc1`, for which the survival is inactive: 49%.

For `Cc1sc2ncn(CC(=O)N(C)c3cccc(C(F)(F)F)c3)c(=O)c2c1S(=O)(=O)N1CCN(c2ncccn2)CC1`, the survival was inactive: 130%.

With `Fc1ccc(-n2ncc3c(N4CCN(c5ccccc5F)CC4)ncnc32)cc1`, the survival is inactive: 86%.

For `COc1ccc(CCn2c(=O)c3cccnc3n(CC(=O)Nc3c(C)cc(C)cc3C)c2=O)cc1OC`, the survival was inactive: 90%.

For `CCCc1cc(N2CCN(c3ccc(OC)cc3)CC2)n2cnnc2n1`, the survival was inactive: 71%.

Turning to `COc1cc(NC(=O)CCNC(=O)Cn2cnc3ccccc3c2=O)cc(OC)c1OC`, the survival was inactive: 82%.

In the case of `Cc1ccc2nc3sc(C#N)c(N)c3cc2c1`, the survival was inactive: 91%.

`O=C(CCCCCn1c(=O)[nH]c2ccccc2c1=O)NCc1ccc(Cl)cc1`: the survival is inactive: 95%.

For `CCC(=O)N1CCc2cc(Br)cc(S(=O)(=O)NCc3ccccc3)c21`, the survival was inactive: 66%.

Regarding `CCC1CCCCN1C(=O)Cn1c(=O)n(CCCCCC(=O)NCc2ccccc2Cl)c(=O)c2sccc21` (stereo not given), the survival is inactive: 73%.

As for `COc1cccc(-c2nnc3sc(CN4CCCCC4)cn23)c1`, the survival is inactive: 77%.

In the case of `COc1ccc(CNC(=O)C(OC(=O)c2ccc(Cl)nc2)c2ccccn2)cc1` (stereo not given), the survival was inactive: 104%.

`O=C(NCCc1ccc(Cl)cc1)c1ccc2c(c1)N(Cc1cccc(Cl)c1)C(=O)c1ccccc1S2(=O)=O`: the survival was inactive: 117%.

In the case of `Cc1cccc(CCNC(=O)c2c[nH]c3ccc(S(=O)(=O)Nc4ccccc4F)cc3c2=O)c1`, the survival was inactive: 90%.

On to `O=C(CSc1nc2ccccc2c(=O)[nH]1)NC1CCCC1`, for which the survival was inactive: 87%.

Regarding `COC(=O)c1ccc(NC(=O)CC2C(=O)N(c3cccc(C)c3)C(=O)N2C2CCCC2)cc1` (stereo not given), the survival was inactive: 124%.

For the compound `O=C(CCCc1ccccc1)NCC1CCCO1` (stereo not given), the survival was inactive: 89%.

Turning to `Cc1cc(=O)oc2c3c(ccc12)OCN(Cc1ccc(Cl)cc1)C3`, the survival is inactive: 61%.

In the case of `CCn1nc(C)c2c(-c3ccccc3)cc(=O)n(C(C)C(=O)NCCc3ccccc3)c21` (stereo not given), the survival was inactive: 77%.

As for `CCc1nn2c(=O)cc(COC(=O)c3ccccc3NC(=O)c3cccs3)nc2s1`, the survival is inactive: 84%.

`O=C(CCn1ccc2cc(S(=O)(=O)N3CCCC3)ccc21)NCc1ccccc1Cl`: the survival was inactive: 55%.

For `O=C(Nc1sc2c(c1C(=O)NCCc1ccccc1)CCC2)c1ccco1`, the survival is inactive: 108%.

(Values after PubChem BioAssay AID463173 (ICCB-Longwood Screening Facility, Harvard Medical School, 2010).)
